# Results reported in the supplement of paper PMC4166925.
# ± gives the standard deviation of the averaged measurements. In all, about 33,000 sequences were measured (“E-score (dimensionless, -0.5 to 0.5)”: median about -0.049, highest 2% from about 0.37 on). The list shows a part of the results.
# System: T1, PmTbr T-box DNA-binding domain (GST fusion)
# T1 sequence: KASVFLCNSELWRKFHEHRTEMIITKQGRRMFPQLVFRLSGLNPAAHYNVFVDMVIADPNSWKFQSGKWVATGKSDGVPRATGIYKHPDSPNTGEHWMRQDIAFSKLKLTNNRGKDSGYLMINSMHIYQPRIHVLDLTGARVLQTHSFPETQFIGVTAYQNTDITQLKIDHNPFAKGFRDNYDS
# Assay: PBM E-score of 8-mer (E-score (dimensionless, -0.5 to 0.5)); Tbr is Tbrain of the sea star Patiria miniata (Pm) or the sea urchin Strongylocentrotus purpuratus (Sp); higher = stronger binding preference; most listed sequences are background and not binding sites
# Conditions: the construct has about 5 more residues each side
# Procedure, shortened: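 Universal Agilent oligonucleotide arrays, made double-stranded by primer extension, were incubated with 200 nM GST-fused Tbr T-box DNA-binding domain in PBS (pH 7.5). The protein was expressed in BL21 E. coli at 20 °C and purified by glutathione affinity chromatography. After scanning and quantification, the Universal PBM Analysis Suite assigned an enrichment E-score to each ungapped 8-mer, averaged over duplicate arrays.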
row,Sequence,PBM E-score of 8-mer
1,CTTAGCCC,-0.172 ± 0.033
2,AGTTAGTA,-0.0652 ± 0.01
3,ACTGCTAC,-0.0921 ± 0.023
4,GTTGTTAA,0.338 ± 0.029
5,GCTATAAA,0.0784 ± 0.026
6,CTTAGCAC,0.4 ± 0.0047
7,CCTGAATC,-0.0399 ± 0.0061
8,TATGGAGA,-0.209 ± 0.021
9,CGTTCGTA,-0.101 ± 0.035
10,ACGTACCG,-0.111 ± 0.041
11,GAATGATC,-0.0267 ± 0.00081
12,AGGTACCT,-0.00768 ± 0.00088
13,CGTAAGAG,-0.222 ± 0.041
14,GCTAAGAA,0.107 ± 0.12
15,ACCATACA,-0.0577 ± 0.022
16,AACCTACG,-0.21 ± 0.0028
17,CAATATGG,-0.031 ± 0.021
18,CTCGACAA,0.131 ± 0.017
19,GTTTTGGA,-0.258 ± 0.05
20,ACCCGTGG,0.002 ± 0.0038
21,ATCGATAA,0.0914 ± 0.086
22,ATCCTTAC,0.0606 ± 0.034

row,Sequence,PBM E-score of 8-mer
1,ATAGATGA,-0.147 ± 0.059
2,CAGAGCCA,0.0029 ± 0.0065
3,CGGGCAAA,-0.171 ± 0.0053
4,AGGCTTTA,-0.236 ± 0.052
5,ACACGGAA,0.0215 ± 0.021
6,GTGAGCCA,0.0202 ± 0.042
7,ATAAATAA,-0.259 ± 0.017
8,CAATGGAA,-0.144 ± 0.028
9,ATAAGTAA,0.082 ± 0.054
10,CCTCTTCA,0.0188 ± 0.05
11,CCGTGAAA,0.222 ± 0.019
12,CTTTACTA,-0.0858 ± 0.059
13,CGGGATCC,-0.132 ± 0.037
14,ACGGTTTG,0.0657 ± 0.037
15,AACTTGCA,0.186 ± 0.014
16,GCCCCTGA,-0.0764 ± 0.072
17,AGCGTGGG,-0.1 ± 0.085
18,AATTAGCC,-0.0249 ± 0.03
19,AGATTATG,-0.28 ± 0.024
20,ACATCATA,0.056 ± 0.069
21,CCATCCCC,-0.261 ± 0.055
22,CACATGCG,0.16 ± 0.0062

row,Sequence,PBM E-score of 8-mer
1,CTCTTAGA,-0.246 ± 0.025
2,TCGTCACA,0.3455 ± 0.0028
3,AGAAAAAC,-0.149 ± 0.069
4,ATTACGAG,-0.0382 ± 0.07
5,CCGGTCCC,-0.324 ± 0.04
6,GTAACGAC,0.105 ± 0.083
7,TACCAAAA,-0.127 ± 0.086
8,CATTCTTC,-0.0142 ± 0.0099
9,AGATACGA,-0.172 ± 0.0095
10,ATGGGCTG,-0.0431 ± 0.049
11,CACTAGCA,0.197 ± 0.024
12,TCGGCCAA,-0.0197 ± 0.067
13,CGAATGGC,0.0367 ± 0.0062
14,CAGGGACG,-0.0768 ± 0.0047
15,TAGCTCCA,-0.3151 ± 0.0019
16,AGTGGCGG,0.215 ± 0.061
17,CGAACCGA,0.116 ± 0.058
18,TCGTGCCA,0.198 ± 0.011
19,CAGCCCAA,-0.205 ± 0.05
20,GGCCACGA,-0.203 ± 0.0067
21,CCCACTGC,-0.122 ± 0.12
22,CCACTTTC,0.104 ± 0.06

row,Sequence,PBM E-score of 8-mer
1,AATCACCA,0.0367 ± 0.012
2,ACAGGCCC,-0.165 ± 0.08
3,AACTAAAT,-0.108 ± 0.018
4,GTGGAGGA,0.00318 ± 0.03
5,CTGACTGC,-0.0183 ± 0.029
6,AGCTGGTA,-0.0785 ± 0.028
7,CTCAGTCA,-0.0137 ± 0.0022
8,GGAAATTA,-0.19 ± 0.13
9,GACACGCC,0.234 ± 0.058
10,TACTCAGA,0.055 ± 0.043
11,ATTAGAGC,-0.204 ± 0.039
12,ACATCGAT,-0.114 ± 0.087
13,ACTAAGGA,-0.235 ± 0.096
14,CGGATAGC,-0.00127 ± 0.028
15,TCGCCCGA,-0.00096 ± 0.011
16,GATTTGAA,-0.195 ± 0.015
17,CCGTCAAA,0.197 ± 0.013
18,GAGAGCCC,-0.0477 ± 0.083
19,ACAGTCTG,-0.103 ± 0.039
20,GAGCCAGA,-0.143 ± 0.016
